{
  "source": "paper PMC4336329",
  "about": "(PLoS ONE, 2015)",
  "note": "In all, about 310,000 compounds went through this assay and about 14,000 (4.5%) showed an effect of 50% or more. Effects have a minus sign here. The list shows a part of the results.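 Note: peak tail current of the secondary pulse compared with the same well before compound.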",
  "data": [
    {"biological_target": "human ether-à-go-go-related gene (hERG) potassium channel (human, UniProt Q12809)", "sequence (Q12809 whole entry, looked up)": "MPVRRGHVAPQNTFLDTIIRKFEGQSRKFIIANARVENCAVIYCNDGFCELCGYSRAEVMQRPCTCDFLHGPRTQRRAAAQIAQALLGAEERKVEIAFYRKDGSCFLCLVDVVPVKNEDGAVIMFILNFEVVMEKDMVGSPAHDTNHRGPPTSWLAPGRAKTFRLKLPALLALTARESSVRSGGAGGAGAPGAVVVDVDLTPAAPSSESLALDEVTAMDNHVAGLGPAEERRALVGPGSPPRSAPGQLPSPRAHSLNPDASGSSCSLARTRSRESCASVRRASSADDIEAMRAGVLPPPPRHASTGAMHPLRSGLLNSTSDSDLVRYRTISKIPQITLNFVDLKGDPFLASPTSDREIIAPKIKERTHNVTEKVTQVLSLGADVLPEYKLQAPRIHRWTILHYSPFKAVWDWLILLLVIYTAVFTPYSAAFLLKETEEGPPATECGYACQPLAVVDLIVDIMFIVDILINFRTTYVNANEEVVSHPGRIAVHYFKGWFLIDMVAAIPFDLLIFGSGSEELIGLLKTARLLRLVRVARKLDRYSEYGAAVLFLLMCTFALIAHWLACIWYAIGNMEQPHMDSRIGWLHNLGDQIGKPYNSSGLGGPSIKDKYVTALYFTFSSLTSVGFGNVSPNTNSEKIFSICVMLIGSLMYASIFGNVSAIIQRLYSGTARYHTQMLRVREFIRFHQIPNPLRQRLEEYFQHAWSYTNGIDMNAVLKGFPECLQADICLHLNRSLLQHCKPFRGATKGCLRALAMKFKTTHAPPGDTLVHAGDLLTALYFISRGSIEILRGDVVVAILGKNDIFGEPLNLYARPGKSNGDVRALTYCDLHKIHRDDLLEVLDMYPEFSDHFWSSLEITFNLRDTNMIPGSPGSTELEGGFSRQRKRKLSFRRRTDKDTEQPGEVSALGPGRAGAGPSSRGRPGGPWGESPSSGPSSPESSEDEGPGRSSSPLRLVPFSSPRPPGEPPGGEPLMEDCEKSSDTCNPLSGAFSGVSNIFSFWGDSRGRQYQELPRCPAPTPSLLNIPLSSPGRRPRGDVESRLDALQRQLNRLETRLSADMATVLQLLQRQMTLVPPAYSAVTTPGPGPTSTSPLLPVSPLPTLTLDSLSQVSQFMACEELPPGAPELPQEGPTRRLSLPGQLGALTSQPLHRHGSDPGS", "assay": "primary screen, population patch clamp on CHO cells stably expressing hERG", "units": {"hERG current change (%, negative = inhibition) at 10uM": "%"}, "values": [
      {"compound": "COc1ccccc1NC(=O)CSc1nnc(Cc2cccn2C)n1CCc1ccccc1", "hERG current change (%, negative = inhibition) at 10uM": -20.8},
      {"compound": "O=C(c1cccc(F)c1)N1CCN(c2ccc([N+](=O)[O-])c(N3CCOCC3)c2)CC1", "hERG current change (%, negative = inhibition) at 10uM": -25},
      {"compound": "O=C1CN(C(=O)COC(=O)c2cccc(Br)c2)c2ccccc2N1", "hERG current change (%, negative = inhibition) at 10uM": 10.1},
      {"compound": "COc1ccc(O)c2c(=O)c3c(OC)cc4c(c3oc12)C1C=COC1O4", "note": "(stereo not shown)", "hERG current change (%, negative = inhibition) at 10uM": 4.03},
      {"compound": "CC1Sc2ccc(S(=O)(=O)NCCc3ccc(Cl)cc3)cc2NC1=O", "note": "(stereo not shown)", "hERG current change (%, negative = inhibition) at 10uM": 5.57},
      {"compound": "COc1ccc(N2CCN(C(=O)c3ccccc3N(C)S(=O)(=O)c3ccccc3)CC2)cc1", "hERG current change (%, negative = inhibition) at 10uM": -34.1},
      {"compound": "COc1cccc(NC(=O)CN(C)C(=O)CSCC(=O)Nc2ccc(C)cc2)c1", "hERG current change (%, negative = inhibition) at 10uM": 2.29},
      {"compound": "O=C(COc1ccc(Cl)cc1Cl)Nc1nnc(C2=COCCO2)o1", "hERG current change (%, negative = inhibition) at 10uM": 6.77},
      {"compound": "Cc1ccnc(NC(=O)CNC(=O)c2ccccc2Br)c1", "hERG current change (%, negative = inhibition) at 10uM": 11.1},
      {"compound": "CCC1=NN2C(=N)/C(=C\\c3cccn3-c3ccc(Cl)cc3)C(=O)N=C2S1", "hERG current change (%, negative = inhibition) at 10uM": 3.11},
      {"compound": "CCCC(=O)Nc1nnc(S(=O)(=O)N2CCCCCC2)s1", "hERG current change (%, negative = inhibition) at 10uM": 8.44},
      {"compound": "Cc1ccc(N=N/C(=C\\O)C(=O)c2ccncc2)cc1", "hERG current change (%, negative = inhibition) at 10uM": -7.27},
      {"compound": "COc1ccc(CC(C)N2CCN(c3ccccc3)CC2)cc1OC", "note": "(stereo not shown)", "hERG current change (%, negative = inhibition) at 10uM": -64},
      {"compound": "Cc1ccc(C)c(CN2C(=O)c3ccccc3S(=O)(=O)c3ccc(C(=O)N4CCN(C)CC4)cc32)c1", "hERG current change (%, negative = inhibition) at 10uM": -0.799},
      {"compound": "COc1ccc2nc(Cl)c(C#N)cc2c1", "hERG current change (%, negative = inhibition) at 10uM": 0.182},
      {"compound": "O=C(CCS(=O)(=O)c1cc2c(cc1Cl)NC(=O)CO2)NCc1ccc(F)cc1", "hERG current change (%, negative = inhibition) at 10uM": -31.8},
      {"compound": "COCc1cc(C)n(CC(=O)N/N=C/c2ccc(-c3ccc(Cl)c(C(=O)O)c3)o2)c(=O)c1C#N", "hERG current change (%, negative = inhibition) at 10uM": 8.19},
      {"compound": "Cc1ccccc1C1c2[nH]c3ccccc3c2C[C@H]2C(=O)N(c3ccccc3C(=O)NCCN3CCOCC3)C(=O)N12", "note": "(stereo partly shown)", "hERG current change (%, negative = inhibition) at 10uM": -1.87},
      {"compound": "CC(C(=O)NCc1ccccn1)N1C(=O)c2ccccc2C1=O", "note": "(stereo not shown)", "hERG current change (%, negative = inhibition) at 10uM": -6.39},
      {"compound": "Cc1ccc(NC(=O)NCCN2CCN(C(=O)Nc3ccc(C)cc3)CC2)cc1", "hERG current change (%, negative = inhibition) at 10uM": -36.4},
      {"compound": "Cc1cc2c(c(=O)n1CCN(C)C)C(c1ccncc1)C(C#N)=C(N)O2", "note": "(stereo not shown)", "hERG current change (%, negative = inhibition) at 10uM": 19.6},
      {"compound": "COc1ccc(N2C(=O)CC(Nc3ccc(C(=O)O)cc3)C2=O)cc1OC", "note": "(stereo not shown)", "hERG current change (%, negative = inhibition) at 10uM": 7.54},
      {"compound": "O=c1ccc(Oc2nc(N3CCCCC3)nc(N3CCCCC3)n2)n[nH]1", "hERG current change (%, negative = inhibition) at 10uM": -4.44},
      {"compound": "COc1cc2ncc(S(=O)(=O)c3ccccc3)c(N3CCC4(CC3)OCCO4)c2cc1OC", "hERG current change (%, negative = inhibition) at 10uM": -80.8},
      {"compound": "CCN1C(=O)/C(=c2\\s/c(=C3\\Sc4ccccc4N3C)c(=O)n2C)N(C)C1=S", "hERG current change (%, negative = inhibition) at 10uM": 15.7},
      {"compound": "Cc1cc(-c2ccccc2)nc2oc(C(=O)NN)c(N)c12", "hERG current change (%, negative = inhibition) at 10uM": 19.6},
      {"compound": "O=C(N/N=C/c1ccc(F)cc1)c1cc[n+]([O-])cc1", "hERG current change (%, negative = inhibition) at 10uM": 16.8},
      {"compound": "O=S(=O)(c1ccccc1)N1CCN=C1SCc1ccc(Cl)c(Cl)c1", "hERG current change (%, negative = inhibition) at 10uM": -2.01},
      {"compound": "O=C(NCc1nnc(SCC(=O)N2CCN(c3ccccc3)CC2)o1)c1ccccc1", "hERG current change (%, negative = inhibition) at 10uM": 14},
      {"compound": "CS(=O)(=O)N1CCC(C(=O)Nc2cccc(F)c2)CC1", "hERG current change (%, negative = inhibition) at 10uM": 15.2},
      {"compound": "O=C(CN(C(=O)CCC(=O)Nc1ccccn1)C1CCCC1)NCc1ccc(F)cc1", "hERG current change (%, negative = inhibition) at 10uM": -22.5},
      {"compound": "C=CCNS(=O)(=O)c1cc(S(=O)(=O)NCC=C)c(OC)cc1OC", "hERG current change (%, negative = inhibition) at 10uM": 18.8},
      {"compound": "CCOc1ccc(Cc2noc3c2C(=O)CC(C)(C)C3)cc1OCC", "hERG current change (%, negative = inhibition) at 10uM": -14.5},
      {"compound": "CCSc1ncc(Cl)c(C(=O)Nc2ccccc2F)n1", "hERG current change (%, negative = inhibition) at 10uM": 20.9},
      {"compound": "CCC(=O)OCC(=O)Nc1ccc([N+](=O)[O-])cc1OC", "hERG current change (%, negative = inhibition) at 10uM": 9.29},
      {"compound": "COc1ccc(-c2nn(CC(=O)Nc3ccc(Cl)c(Cl)c3)c(=O)c3ccccc23)cc1", "hERG current change (%, negative = inhibition) at 10uM": 6.59},
      {"compound": "O=C(NCc1cccnc1)C1CC(c2ccc(Cl)c(Cl)c2)=NO1", "note": "(stereo not shown)", "hERG current change (%, negative = inhibition) at 10uM": -23.6},
      {"compound": "COc1ccc(OCc2nnc(SCC(=O)O)n2N)cc1", "hERG current change (%, negative = inhibition) at 10uM": 23},
      {"compound": "O=C(NCCc1cccs1)C1CC(c2cccc([N+](=O)[O-])c2)=NO1", "note": "(stereo not shown)", "hERG current change (%, negative = inhibition) at 10uM": -23.5},
      {"compound": "CCCCn1c(N)c(N(CCOC)C(=O)CCNC(=O)c2ccccc2Cl)c(=O)[nH]c1=O", "hERG current change (%, negative = inhibition) at 10uM": 13.4},
      {"compound": "CNc1nc2c(-c3ccc(Cl)cc3)nnn2c2ccccc12", "hERG current change (%, negative = inhibition) at 10uM": 15.7},
      {"compound": "O=C(COc1ccccc1Cl)Nc1cnn(Cc2ccccc2)c1", "hERG current change (%, negative = inhibition) at 10uM": 7.88},
      {"compound": "Cc1cccc([C@@H]2C[C@H]3CN(Cc4cccc(Cl)c4)C(=O)[C@]34CCCN24)n1", "hERG current change (%, negative = inhibition) at 10uM": -55}
    ]}
  ]
}
